According to a compilation of properties of binary mixtures (doi:10.1080/01932691.2021.1974876):
Some of these densities may be calculated back from excess volumes.

Experiment: xn = mol fraction of the nth substance listed
Details: 100 kPa

CO + CC[n+]1ccn(C)c1.N#C[S-]
x2 = 0
Details | mass density [kg/m3]
293.15 K | 791
303.15 K | 782
308.15 K | 777
313.15 K | 772
323.15 K | 762

CC[n+]1ccn(C)c1.N#C[S-] + CO
mass density [kg/m3]
Details | x1 = 0.0988 | x1 = 0.1966 | x1 = 0.3005 | x1 = 0.3859 | x1 = 0.5006 | x1 = 0.5972 | x1 = 0.6996 | x1 = 0.804 | x1 = 0.8997 | x1 = 1
293.15 K | 911 | 978 | 1026 | 1049 | 1073 | 1087 | 1096 | 1105 | 1111 | 1116
298.15 K | 906 | 973 | 1021 | 1044 | 1068 | – | 1093 | 1101 | 1107 | 1113
303.15 K | 900 | 967 | 1016 | – | 1064 | 1078 | 1088 | 1098 | 1104 | –
308.15 K | – | 962 | 1011 | 1035 | – | 1074 | 1085 | 1094 | 1100 | –
313.15 K | 889 | 957 | 1006 | 1031 | 1054 | 1069 | 1081 | 1090 | 1097 | 1103
318.15 K | 884 | 952 | 1002 | 1026 | 1050 | 1065 | 1077 | 1087 | 1093 | 1100
323.15 K | 878 | – | – | 1021 | 1045 | 1060 | 1073 | – | – | –
